# Laboratory results as given in PubChem BioAssay AID1347165 (National Center for Advancing Translational Sciences (NCATS), 2019).
# In all, about 220,000 compounds went through this assay and about 5,700 (2.6%) were called active. This list was built around the results that the source calls inconclusive (neither active nor inactive); the mix of calls is not that of the screen. Calls come from the whole dose curve; as a rule, active = well fitted inhibition curve with a large enough effect; inconclusive = small, poorly fitted or top-dose-only effect; inactive = no such curve, though single readings can be large or run the other way. Where the call is inconclusive, the potency comes from a doubtful curve fit.
# Target: Lysine-specific demethylase 5B (Homo sapiens) (UniProt Q9UGL1)
# Test: Primary screen for KDM5B Histone Demethylases FDH-coupled qHTS; note: nearly all actives have a fitted effect of over 70% in size; for activity change, negative = inhibition: 0% is about no effect
# Conditions: FDH-coupled NADH fluorescence (FDH is formaldehyde dehydrogenase); activity change, negative = inhibition: at 57.7 µM (top of the series) unless noted
# How it was run: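 Compound dilutions met 200 nM (final) KDM5BΔAP for 10 min at room temperature before substrate addition. The substrate mix held 12.5 µM H3K4me3 with cofactors 25 µM α-ketoglutarate and 50 µM Fe²⁺. NADH signal gain over 30 min defined activity.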
# Potency is the fitted concentration of half-maximal effect; tags give direction and shape of the fitted curve.
# Sequence of UniProt Q9UGL1 (Q9UGL1 whole entry, looked up): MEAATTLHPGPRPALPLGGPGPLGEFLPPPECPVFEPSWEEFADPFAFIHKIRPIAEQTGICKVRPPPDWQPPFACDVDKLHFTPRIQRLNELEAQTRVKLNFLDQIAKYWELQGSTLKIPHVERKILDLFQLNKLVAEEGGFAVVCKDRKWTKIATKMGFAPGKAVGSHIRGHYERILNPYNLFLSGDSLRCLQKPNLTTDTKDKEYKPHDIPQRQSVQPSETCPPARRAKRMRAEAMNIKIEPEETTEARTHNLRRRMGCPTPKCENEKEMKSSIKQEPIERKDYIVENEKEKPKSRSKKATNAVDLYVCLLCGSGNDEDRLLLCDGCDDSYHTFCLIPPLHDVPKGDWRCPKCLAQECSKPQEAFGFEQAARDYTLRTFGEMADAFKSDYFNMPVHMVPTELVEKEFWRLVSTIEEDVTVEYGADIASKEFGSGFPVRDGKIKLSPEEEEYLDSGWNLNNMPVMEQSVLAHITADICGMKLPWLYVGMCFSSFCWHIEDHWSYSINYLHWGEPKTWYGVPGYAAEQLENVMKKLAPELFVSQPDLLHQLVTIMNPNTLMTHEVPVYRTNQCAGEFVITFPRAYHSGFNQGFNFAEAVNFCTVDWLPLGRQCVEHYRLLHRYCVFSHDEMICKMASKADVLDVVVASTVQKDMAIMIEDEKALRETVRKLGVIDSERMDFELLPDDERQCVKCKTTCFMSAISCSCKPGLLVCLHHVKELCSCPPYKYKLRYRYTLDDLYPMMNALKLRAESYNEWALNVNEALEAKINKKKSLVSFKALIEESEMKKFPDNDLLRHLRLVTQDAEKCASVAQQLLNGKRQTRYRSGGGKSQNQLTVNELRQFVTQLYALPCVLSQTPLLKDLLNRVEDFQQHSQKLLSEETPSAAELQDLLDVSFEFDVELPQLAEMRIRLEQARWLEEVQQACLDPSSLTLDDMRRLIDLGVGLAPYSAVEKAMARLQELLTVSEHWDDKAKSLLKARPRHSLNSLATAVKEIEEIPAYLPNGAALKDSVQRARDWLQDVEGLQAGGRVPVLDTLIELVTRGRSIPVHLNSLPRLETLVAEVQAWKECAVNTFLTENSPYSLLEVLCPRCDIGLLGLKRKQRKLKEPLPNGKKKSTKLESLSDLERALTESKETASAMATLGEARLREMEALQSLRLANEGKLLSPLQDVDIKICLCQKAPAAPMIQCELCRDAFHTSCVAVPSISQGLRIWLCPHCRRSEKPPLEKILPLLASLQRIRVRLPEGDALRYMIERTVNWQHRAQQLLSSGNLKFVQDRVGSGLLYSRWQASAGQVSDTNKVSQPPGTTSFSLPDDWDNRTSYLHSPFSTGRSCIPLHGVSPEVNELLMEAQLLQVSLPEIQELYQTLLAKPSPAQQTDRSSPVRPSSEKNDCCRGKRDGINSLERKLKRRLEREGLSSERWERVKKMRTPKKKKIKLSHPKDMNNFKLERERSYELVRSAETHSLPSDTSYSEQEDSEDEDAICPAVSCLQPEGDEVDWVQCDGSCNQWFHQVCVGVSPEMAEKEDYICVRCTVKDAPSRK
Compound,Potency,"activity change, negative = inhibition"
O=C1CO[C@H]2CCN(Cc3ccccc3F)CC[C@@H]2N1Cc1ccccc1,"inconclusive: 39.8 µM [inhibitor, partial curve, poor fit]",–
Cc1ccccc1/C=C(/C#N)C(=O)c1sccc1C,"inconclusive: 39.8 µM [inhibitor, single point]",–
Cn1c(=O)c2c(ncn2CC(=O)c2cccc(C(F)(F)F)c2)n(C)c1=O,inactive,–
O=C(CSc1ncnc2ccccc12)Nc1ccccc1Oc1ccccc1,inactive,–
Cn1c2ccccc2c2nnc(SCc3c(F)cccc3Cl)nc21,inactive,–
CCCNC(=O)COc1ccc2ccc(=O)oc2c1,"inconclusive: 35.5 µM [inhibitor, partial curve, poor fit]",–
Cc1nnc(N2CCCC(C(=O)NCCN(C)C)C2)c2nn(-c3ccccc3)c(C)c12 (stereo not drawn),"inconclusive: 35.5 µM [inhibitor, single point]",–
Cc1oc(-c2cccs2)nc1CC(=O)NCc1ccc(CN2CCC(C)CC2)cc1,"inconclusive: 22.4 µM [inhibitor, partial curve, poor fit]",–
CCOc1ccc(S(=O)(=O)Nc2ccccc2-c2nnc3n2CCCCC3)cc1OCC,inactive,–
O=C(NCC1CCCO1)c1ccnc(-c2nnc3ccc(Nc4ccccc4)nn23)c1 (stereo not drawn),inactive,–
COc1ccc(Cc2nc3nccc(-c4ccc5c(c4)OCCCO5)n3n2)cc1,"inconclusive: 15.8 µM [inhibitor, partial curve, poor fit]",–
CCOC(=O)C(=CNc1cc(Cl)c(-c2ccco2)c(Cl)c1)C(=O)OCC,"inconclusive: 35.5 µM [inhibitor, partial curve, poor fit]",–
Cc1ccc(-c2nnc(Nc3ccc(C(N)=O)cc3)c3ccccc23)cc1S(N)(=O)=O,"inconclusive: 14.1 µM [inhibitor, partial curve, poor fit]",–
COCCCNC(=O)c1cn2ccnc(-c3ccc(OC)cc3)c2n1,active: 25.1 µM,–
COC(=O)[C@H](NC(=O)Nc1ccc(C)cc1C)C(C)C,inactive,–
c1cc2c(cc1-c1csc(NC3CCCC3)n1)OCCCO2,"inconclusive: 14.1 µM [inhibitor, partial curve, poor fit]",–
c1ccc(CNc2nc(Nc3cccc4ccccc34)nc3ccccc23)cc1,"inconclusive: 28.2 µM [inhibitor, partial curve, poor fit]",–
CC1CCCN(C(=O)c2cc(-c3cnn(CCO)c3)nc3cc(Cl)ccc23)C1 (stereo not drawn),"inconclusive: 28.2 µM [inhibitor, partial curve, poor fit]",–
O=C(NCc1ccc(F)cc1)c1nc(-c2ccc(F)cc2)c2ccccn12,active: 31.6 µM,–
CONC(=O)C(CC(C)C)NC(=O)c1ccc(Cl)cc1 (stereo not drawn),inactive,–
CC1(c2ccccc2)N(Cc2ccccc2C#N)C(=O)OC12CCN(Cc1c[nH]c3ccccc13)CC2 (stereo not drawn),"inconclusive: 25.1 µM [inhibitor, single point]",–
Cc1cc(O)c(C(c2ccccc2)N2CCN(c3ccccc3)CC2)c(=O)n1Cc1ccco1 (stereo not drawn),"inconclusive: 28.2 µM [inhibitor, partial curve, poor fit]",–
Cc1cnc(C)c(N2CCC(COc3cnc4c(ccn4CC(N)=O)c3)CC2)n1,active: 35.5 µM,–

Compound,Potency,"activity change, negative = inhibition"
N#CC1(C(N)=O)C(c2ccccc2Cl)C1(C#N)C(N)=O (stereo not drawn),inactive,–
CCOC(=O)N1CCC(NC(=O)c2cc3cc(OC)ccc3[nH]2)CC1,"inconclusive: 28.2 µM [inhibitor, partial curve, poor fit]",–
CN1Cc2ncnc(NCCCO)c2CN(c2ccccc2)C1=O,"inconclusive: 28.2 µM [inhibitor, partial curve]",–
CN(C)CCCN(C(=O)c1ccc([N+](=O)[O-])o1)c1nc2cc3c(cc2s1)OCO3,"inconclusive: 14.1 µM [inhibitor, partial curve, poor fit]",–
O=C(COc1ccccc1)N[C@H]1CO[C@H]2[C@@H]1OC[C@@H]2n1nnnc1-c1ccc2c(c1)OCO2,"inconclusive: 14.1 µM [inhibitor, partial curve, poor fit]",–
CCc1nc(Nc2ccc(F)c(Cl)c2)c2c3c(sc2n1)CCCC3,"inconclusive: 35.5 µM [inhibitor, partial curve, poor fit]",–
CCN(CCOC)Cc1cn(C)nc1-c1ccc(C2CCCCC2)cc1,inactive,–
Cc1ccccc1OCC(=O)NC1CCN(c2cc(-c3ccccc3)[nH]n2)CC1,"inconclusive: 22.4 µM [inhibitor, partial curve]",–
CS(=O)(=O)c1ccc(NCc2ccccc2F)c(S(C)(=O)=O)c1,"inconclusive: 39.8 µM [inhibitor, single point]",–
Cc1ccc(C)c(-n2nc(-c3c(C)nc4scc(CC(=O)N5CCCC5)n4c3=O)cc2C)c1,"inconclusive: 28.2 µM [inhibitor, partial curve, poor fit]",–
COc1ccc(CNC(=O)c2c(C)noc2-c2cccs2)cc1,"inconclusive: 28.2 µM [inhibitor, partial curve, poor fit]",–
c1cncc(-c2n[nH]c(C3CCCCN3)n2)c1 (stereo not drawn),inactive,–
O=C(N[C@H]1CCN2C(=O)c3cc(-c4ccc(F)cc4F)ccc3NC(=O)[C@H]12)c1cccc(F)c1,inactive,–
CCn1c2ccccc2c2cc(CN3CCN(Cc4ccc(Cl)cc4)CC3)ccc21,"inconclusive: 7.08 µM [inhibitor, partial curve, poor fit]",–
Cc1ccc2c(=O)cc(C(=O)Nc3ccc(S(=O)(=O)N4CCCCC4C)cc3)oc2c1C (stereo not drawn),inactive,–
CCN(CC)c1ccc(NS(=O)(=O)c2cc(-c3onc(C)c3C)ccc2OC)c(C)c1,"inconclusive: 22.4 µM [inhibitor, single point]",–
CSc1ccc(CNC(=O)c2cc3c(N(C)Cc4ccccc4)nc(C)cn3n2)cc1,active: 25.1 µM,–
O=C(CCc1ccccc1Cl)NCc1cccc(C(F)(F)F)c1,inactive,–
Cc1ccc(/C=N/NC(=O)C2C(C=C(Cl)Cl)C2(C)C)cc1 (stereo not drawn),inactive,–
CC(=O)Nc1cc(C(=O)NCc2ccc(F)cc2)ccc1S(=O)(=O)c1ccc(C)cc1,–,inconclusive: -30.5% [inhibitor]
COc1ccc(C(=O)Nc2nnc(SCc3cc(=O)c4cccc(F)c4[nH]3)s2)cc1,–,inconclusive: -32.1% [inhibitor]
O=[N+]([O-])c1ccc(C2=CSC3=NCCN23)cc1,"inconclusive: 25.1 µM [inhibitor, single point]",–
COc1ccc(NC(=O)C2CN(S(C)(=O)=O)CC23CCCCC3)c(C)c1 (stereo not drawn),inactive,–

Compound,Potency,"activity change, negative = inhibition"
O=C(CCc1ccnc(N2CCCC2)c1)NCc1ccccc1Cl,"inconclusive: 22.4 µM [inhibitor, single point]",–
CC(C)n1cc(CN2CCOCCNC(=O)CC2)c2ccccc21,"inconclusive: 22.4 µM [inhibitor, partial curve, poor fit]",–
O=C(O)c1cc(=O)n(Cc2ccccc2)c(=O)[nH]1,"inconclusive: 1.26 µM [inhibitor, full curve, poor fit]",–
CCCN(C(=O)Cc1nc(-c2ccc(OC)cc2)no1)c1ccccc1C,–,inconclusive: -32% [inhibitor]
CCc1cccc(C)c1NC(=O)CCCn1c(C)c2cnn(-c3ccccc3)c(=O)c2c1C,"inconclusive: 4.47 µM [inhibitor, partial curve, poor fit]",–
Cc1ccc(-n2nc(C)c([C@@H]3C=C[C@@H](NC(=O)CC(C)(C)CC(=O)O)C3)c2C)cc1Cl,inactive,–
CCCOc1ccc(C2CC(=O)Nc3c2c(=O)nc(SCc2ccc(F)cc2)n3C)cc1 (stereo not drawn),"inconclusive: 35.5 µM [inhibitor, single point]",–
Cc1ccc(C)c(N(C)C(=O)c2cc3c(s2)-c2ccccc2OC3)c1,"inconclusive: 31.6 µM [inhibitor, partial curve, poor fit]",–
Cc1oc(-c2cccc(Cl)c2)nc1CN1CCOCC1,inactive,–
O=C(NC1CCN(c2cc(-c3ccc(Cl)cc3)[nH]n2)C1)c1ccc(F)c(F)c1 (stereo not drawn),"inconclusive: 6.31 µM [inhibitor, partial curve, poor fit]",–
CCc1c(C(=O)Nc2scc(-c3cc(C)ccc3C)c2C#N)csc1C,"inconclusive: 28.2 µM [inhibitor, partial curve, poor fit]",–
CCS(=O)(=O)N1CC(=O)N(c2ccc(Cl)cc2C)C(C)(C(=O)NC2CCCCC2)C1 (stereo not drawn),inactive,–
CNCC(=O)N1CCC(n2nccc2NC(=O)Nc2ccccc2OC)CC1,"inconclusive: 7.08 µM [inhibitor, full curve, poor fit]",–
CCN(Cc1ccccc1)Cc1nnc2cc(-c3nc(-c4ccccc4)no3)ccn12,"inconclusive: 14.1 µM [inhibitor, partial curve, poor fit]",–
O=C(NC1CCCCC1)C1(CCO)CCN(c2ncccn2)C1 (stereo not drawn),"inconclusive: 28.2 µM [inhibitor, partial curve, poor fit]",–
COC(=O)c1sccc1S(=O)(=O)Nc1ccc(OC)cc1,inactive,–
CCOC(=O)C(CC)Sc1ncnc2c1c(-c1ccccc1)cn2-c1ccc(OC)cc1 (stereo not drawn),"inconclusive: 14.1 µM [inhibitor, partial curve, poor fit]",–
CCOC(=O)COc1ccc2c(=O)c(-c3ccc(OC)cc3)coc2c1,inactive,–
O=C(Cn1cnnn1)N1CCc2onc(-c3cccc4ccccc34)c2C1,active: 31.6 µM,–
Cc1nnc2n1CCC(NC(=O)c1ccoc1)CC2 (stereo not drawn),inactive,–
COc1cccc(N2C(=O)C(CC(=O)Nc3ccccc3)N(CCc3sccc3C)C2=O)c1 (stereo not drawn),inactive,–
CCOC(=O)c1sc(NC(=O)c2ccc(F)c(S(=O)(=O)N3CCCCC3)c2)cc1C,"inconclusive: 28.2 µM [inhibitor, single point]",–
